# From the BET-seq Pho4 binding data (Le et al. 2018)
# The other results are listed elsewhere or left out. The energies were worked out here from pooled read counts, against the library average; single values are noisy.
# Target: T1, Pho4 (S. cerevisiae) (UniProt P07270)
# T1 sequence: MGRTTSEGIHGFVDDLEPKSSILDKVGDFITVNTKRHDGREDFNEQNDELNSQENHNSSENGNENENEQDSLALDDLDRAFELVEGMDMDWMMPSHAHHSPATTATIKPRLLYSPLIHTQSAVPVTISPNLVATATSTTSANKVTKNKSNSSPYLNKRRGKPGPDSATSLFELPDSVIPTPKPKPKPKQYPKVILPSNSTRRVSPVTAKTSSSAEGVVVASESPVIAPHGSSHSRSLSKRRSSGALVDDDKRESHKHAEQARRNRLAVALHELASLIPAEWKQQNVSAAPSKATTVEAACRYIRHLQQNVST
# Assay: relative binding free energy (BET-seq); higher = weaker binding
# Conditions: reference: library average
row,Sequence,relative binding free energy
1,GAGCACACGTGGTGAG,0.16 kcal/mol
2,TGAGTCACGTGGATGA,0.05 kcal/mol
3,ATTACCACGTGTGTTG,-0.08 kcal/mol
4,TCGTTCACGTGGTGGT,0.3 kcal/mol
5,GGTATCACGTGGCTAG,0.08 kcal/mol
6,GAGTTCACGTGTTGGG,0.4 kcal/mol
7,TGAGTCACGTGATTAG,0.22 kcal/mol
8,CGGTTCACGTGGGTAA,0.17 kcal/mol
9,GAATTCACGTGGGTGG,0.24 kcal/mol
10,TGATACACGTGCTGTA,0.21 kcal/mol
11,GGAATCACGTGTTAGT,0.3 kcal/mol
12,TTTTGCACGTGTAAGA,0.09 kcal/mol
13,TACATCACGTGGTTAT,0.17 kcal/mol
14,TGGCGCACGTGCATGG,-0.03 kcal/mol
15,AGGTCCACGTGGTTCG,0.03 kcal/mol
16,GTTTCCACGTGTTGTG,0.18 kcal/mol
17,TTGGACACGTGGTTTC,0.14 kcal/mol
18,ATATGCACGTGGGGGA,-0.21 kcal/mol
19,AAGTACACGTGGATAG,0.14 kcal/mol
20,ATGGACACGTGTGAAG,0.2 kcal/mol
21,TTAGACACGTGCGTGA,-0.01 kcal/mol
22,ACTGTCACGTGGGTGA,0.03 kcal/mol
23,GTGTGCACGTGTCGAG,-0.02 kcal/mol
24,CTTGACACGTGAGTAG,0.26 kcal/mol
25,TCAGTCACGTGTGTTA,0.12 kcal/mol

row,Sequence,relative binding free energy
1,AGTAGCACGTGAGTAA,0.18 kcal/mol
2,AAGCTCACGTGGGCGT,0.17 kcal/mol
3,GTTCACACGTGTAAGT,0.22 kcal/mol
4,TACTTCACGTGTTAAT,0.28 kcal/mol
5,TGGAACACGTGGCTTG,-0.01 kcal/mol
6,GGTCGCACGTGGGAGA,-0.06 kcal/mol
7,TGACGCACGTGATTTG,0 kcal/mol
8,GCGGTCACGTGGTGGA,0.14 kcal/mol
9,GGGCGCACGTGTGGGA,-0.06 kcal/mol
10,TTGTTCACGTGTTCTG,0.18 kcal/mol
11,AATGGCACGTGGATGA,0.03 kcal/mol
12,TGTTGCACGTGTAAAT,0.21 kcal/mol
13,AGGTGCACGTGGCTAG,-0.14 kcal/mol
14,GGTGTCACGTGATTAC,0.24 kcal/mol
15,TTATGCACGTGAAGGT,0.13 kcal/mol
16,TGTCGCACGTGTTGCT,-0.09 kcal/mol
17,AGAGCCACGTGGTAGT,-0.22 kcal/mol
18,GATGGCACGTGGCTTG,-0.13 kcal/mol
19,GCGGACACGTGGTGGA,0.06 kcal/mol
20,TTAGTCACGTGGAAGA,0.06 kcal/mol
21,TTATTCACGTGTGGGT,0.24 kcal/mol
22,ATCTGCACGTGTTGTA,-0.05 kcal/mol
23,AATGCCACGTGGTATG,-0.2 kcal/mol
24,GAATGCACGTGGAAGG,0.14 kcal/mol
25,TTGGTCACGTGGGCAC,0 kcal/mol

row,Sequence,relative binding free energy
1,GGAGGCACGTGGAATT,0.17 kcal/mol
2,TGCAGCACGTGGGTTA,-0.34 kcal/mol
3,TAAAACACGTGGTAGT,-0.06 kcal/mol
4,GTTACCACGTGATGTG,0.06 kcal/mol
5,GTAATCACGTGGTTCA,0.22 kcal/mol
6,TGTTCCACGTGGTCTG,-0.08 kcal/mol
7,TCTTGCACGTGGTTTG,-0.14 kcal/mol
8,TTCGGCACGTGATGTA,-0.03 kcal/mol
9,ATTGACACGTGGGTTT,-0.11 kcal/mol
10,CGGATCACGTGTTTTT,0.21 kcal/mol
11,AGTGGCACGTGGCCGG,-0.26 kcal/mol
12,TTGATCACGTGATTTC,0.28 kcal/mol
13,ATTGGCACGTGGTGTA,-0.23 kcal/mol
14,GGTCGCACGTGGCAGG,-0.08 kcal/mol
15,ATGGTCACGTGCAGTG,0.07 kcal/mol
16,TCGGTCACGTGTATTA,-0.04 kcal/mol
17,ATGAACACGTGTTGGC,0.09 kcal/mol
18,GTAAGCACGTGGGTGC,-0.32 kcal/mol
19,GTTGACACGTGCGTGA,0.08 kcal/mol
20,CGTTACACGTGATAGT,0.28 kcal/mol
21,TAGTGCACGTGTTATC,-0.01 kcal/mol
22,AATGACACGTGTGTGG,0.12 kcal/mol
23,TGATCCACGTGGGTGT,-0.11 kcal/mol
24,TAGATCACGTGGTTCT,0.12 kcal/mol
25,GGTCGCACGTGTATTG,-0.15 kcal/mol

row,Sequence,relative binding free energy
1,TTATCCACGTGTTGGT,-0.04 kcal/mol
2,TTGAACACGTGGGATA,-0.11 kcal/mol
3,TTTTCCACGTGAGGGT,0.35 kcal/mol
4,TTGCTCACGTGTGATT,0.43 kcal/mol
5,GGTGTCACGTGTGACT,0.16 kcal/mol
6,ATTATCACGTGGAGAT,0.06 kcal/mol
7,GCACGCACGTGGTTTG,0.04 kcal/mol
8,TGCGTCACGTGGAGTG,0.14 kcal/mol
9,TTCGCCACGTGTAGTG,0.1 kcal/mol
10,TGTTTCACGTGACATG,0.36 kcal/mol
11,CGTGCCACGTGTGAGT,-0.1 kcal/mol
12,GTGATCACGTGGTGAT,0.13 kcal/mol
13,TGGGGCACGTGGACTC,-0.04 kcal/mol
14,TGGGTCACGTGAAACG,0.28 kcal/mol
15,CGTTCCACGTGTATGG,0.06 kcal/mol
16,GTAATCACGTGTTAGT,0.22 kcal/mol
17,AATTTCACGTGGTCAG,0.15 kcal/mol
18,TCAGGCACGTGGTCTG,-0.17 kcal/mol
19,ACTAGCACGTGGGGGC,-0.05 kcal/mol
20,TGTTTCACGTGTTTGT,0.29 kcal/mol
21,TATGTCACGTGGTCTT,-0.11 kcal/mol
22,TACGGCACGTGGTGGG,0.01 kcal/mol
23,TTTTTCACGTGAATGG,0.45 kcal/mol
24,ACGAGCACGTGGGGTT,-0.2 kcal/mol
25,TGATACACGTGTGTTG,0.01 kcal/mol

row,Sequence,relative binding free energy
1,ATGGGCACGTGCCAGG,-0.33 kcal/mol
2,CATCTCACGTGGGGGG,0.1 kcal/mol
3,TGATGCACGTGTTGAG,0.07 kcal/mol
4,TGGGGCACGTGGTACT,-0.13 kcal/mol
5,GGTGGCACGTGTGTCC,-0.04 kcal/mol
6,TGTGCCACGTGAGGGA,0.09 kcal/mol
7,TGTGTCACGTGTATGG,0.08 kcal/mol
8,GTATTCACGTGTGTTA,0.26 kcal/mol
9,GTGGACACGTGTAGGC,0.03 kcal/mol
10,GGCGTCACGTGTCGGC,0.28 kcal/mol
11,AGTTGCACGTGATGAA,0.09 kcal/mol
12,GGGGGCACGTGGAAGG,0.02 kcal/mol
13,CTAGGCACGTGGGTGT,-0.25 kcal/mol
14,GCCGTCACGTGTGTGG,0.08 kcal/mol
15,GTCAACACGTGATGGG,0.31 kcal/mol
16,TTGTGCACGTGAGGTA,0.22 kcal/mol
17,TTTGTCACGTGACTGG,0.18 kcal/mol
18,GTTAACACGTGGGAGC,-0.02 kcal/mol
19,GGGGGCACGTGACATT,0.08 kcal/mol
20,GGGCGCACGTGTAGTT,0.1 kcal/mol
21,AGAAACACGTGCGGGG,-0.07 kcal/mol
22,TGCATCACGTGATTGG,0.2 kcal/mol
23,AAAAGCACGTGTGTTG,-0.2 kcal/mol
24,GGGGCCACGTGTACGT,0.04 kcal/mol
25,CGTGGCACGTGATTGG,-0.15 kcal/mol

row,Sequence,relative binding free energy
1,TCTGGCACGTGAGGGT,0.09 kcal/mol
2,CATTGCACGTGCGTGG,-0.07 kcal/mol
3,TTGGGCACGTGCGCCG,-0.23 kcal/mol
4,TATGGCACGTGAAAGT,0.19 kcal/mol
5,TACTTCACGTGAGGGT,0.33 kcal/mol
6,CTGTGCACGTGATAGG,-0.12 kcal/mol
7,CTGTACACGTGTGGGC,0.19 kcal/mol
8,TGGGGCACGTGAGGTC,0.18 kcal/mol
9,GGCGTCACGTGTCTGG,0.12 kcal/mol
10,TAGAGCACGTGGATGT,-0.11 kcal/mol
11,ATGGCCACGTGCCGGG,-0.18 kcal/mol
12,ATATGCACGTGTGTGT,-0.04 kcal/mol
13,GGGAGCACGTGGTAGA,-0.23 kcal/mol
14,GCTGGCACGTGGGTAG,-0.09 kcal/mol
15,ACTGTCACGTGGAGGA,0.1 kcal/mol
16,GGGGTCACGTGGCCGT,-0.01 kcal/mol
17,CCGGACACGTGTAGGG,0.15 kcal/mol
18,AAGGTCACGTGAGCTT,0.38 kcal/mol
19,CGGGGCACGTGTAGAT,0.12 kcal/mol
20,ATTTTCACGTGGCAGC,0.26 kcal/mol
21,TTTAGCACGTGGCATA,-0.19 kcal/mol
